Drawing on paper PMC4608766, “The Roles of Arabidopsis CDF2 in Transcriptional and Posttranscriptional Regulation of Primary MicroRNAs” (PLoS Genetics, 2015), this text covers binding for 11 molecules.

Results are given in words; binding and its absence hold for the method and conditions named. For some assays here: In cells and extracts the contact can be indirect. Some binding calls cover weakened binding; strength is not graded here. Where a sequence is shown, tags or fusion partners need not be part of it.

The target of assay [1] is T1, hemagglutinin (HA)-labeled CDF2 (pCDF2::CDF2-HA) (Arabidopsis) (UniProt Q93ZL5).
T1 sequence: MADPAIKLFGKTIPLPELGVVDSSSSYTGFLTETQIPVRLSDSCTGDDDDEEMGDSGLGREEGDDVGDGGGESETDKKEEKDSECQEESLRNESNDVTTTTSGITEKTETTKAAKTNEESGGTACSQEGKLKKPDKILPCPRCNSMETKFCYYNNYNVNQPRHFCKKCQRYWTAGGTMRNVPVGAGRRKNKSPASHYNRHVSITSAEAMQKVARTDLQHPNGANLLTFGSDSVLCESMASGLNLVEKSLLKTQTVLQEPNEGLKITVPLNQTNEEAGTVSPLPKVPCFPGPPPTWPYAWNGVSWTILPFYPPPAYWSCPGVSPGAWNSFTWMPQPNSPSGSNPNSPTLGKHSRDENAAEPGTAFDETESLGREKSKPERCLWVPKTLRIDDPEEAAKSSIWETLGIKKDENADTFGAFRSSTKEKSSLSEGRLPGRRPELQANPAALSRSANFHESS
The assay is described as follows: co-IP; extracts of 22-day-old Arabidopsis plants coexpressing pCDF2::CDF2-HA and pDCL1::DCL1-YFP; anti-HA agarose; blots with anti-GFP and anti-HA.

The target in assay [2] is T2, HYL1, BiFC fusion (Arabidopsis) (UniProt O04492).
T2 sequence: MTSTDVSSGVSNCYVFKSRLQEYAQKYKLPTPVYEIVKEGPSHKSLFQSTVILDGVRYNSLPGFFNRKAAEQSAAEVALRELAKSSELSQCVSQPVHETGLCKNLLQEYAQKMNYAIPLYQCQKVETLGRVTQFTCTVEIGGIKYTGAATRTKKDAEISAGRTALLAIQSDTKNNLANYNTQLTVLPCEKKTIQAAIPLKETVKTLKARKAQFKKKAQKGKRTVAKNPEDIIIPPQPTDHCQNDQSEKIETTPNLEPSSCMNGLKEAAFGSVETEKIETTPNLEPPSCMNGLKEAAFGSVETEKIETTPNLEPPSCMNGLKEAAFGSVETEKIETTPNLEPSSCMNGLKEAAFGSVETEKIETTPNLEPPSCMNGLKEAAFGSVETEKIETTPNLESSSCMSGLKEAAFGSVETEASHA
The assay is described as follows: split reporter; BiFC: YFPN- and YFPC-tagged plasmids co-expressed in tobacco leaves, imaged 48 h after co-inoculation.

Assay [3] addresses DCL1, BiFC fusion (Arabidopsis) (UniProt Q9SP32). Described as above.
The target of assay [4] is T3, two C-terminal dsRBDs of DCL1 (DCL1-RBD, aa 1733-1910), two-hybrid fusion (Arabidopsis) (UniProt Q9SP32).
T3 sequence: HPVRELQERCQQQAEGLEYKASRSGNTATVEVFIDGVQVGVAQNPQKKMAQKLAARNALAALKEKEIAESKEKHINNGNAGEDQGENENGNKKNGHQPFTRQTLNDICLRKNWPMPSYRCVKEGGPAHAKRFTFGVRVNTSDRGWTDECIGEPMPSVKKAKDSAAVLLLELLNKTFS
The assay is described as follows: two-hybrid; direct co-transformation (ProQuest system); growth on SC minus His, Trp and Leu with 5 mM 3-AT.

Assay [5] has as its target T4, full-length HYL1, two-hybrid fusion (Arabidopsis) (UniProt O04492).
T4 sequence: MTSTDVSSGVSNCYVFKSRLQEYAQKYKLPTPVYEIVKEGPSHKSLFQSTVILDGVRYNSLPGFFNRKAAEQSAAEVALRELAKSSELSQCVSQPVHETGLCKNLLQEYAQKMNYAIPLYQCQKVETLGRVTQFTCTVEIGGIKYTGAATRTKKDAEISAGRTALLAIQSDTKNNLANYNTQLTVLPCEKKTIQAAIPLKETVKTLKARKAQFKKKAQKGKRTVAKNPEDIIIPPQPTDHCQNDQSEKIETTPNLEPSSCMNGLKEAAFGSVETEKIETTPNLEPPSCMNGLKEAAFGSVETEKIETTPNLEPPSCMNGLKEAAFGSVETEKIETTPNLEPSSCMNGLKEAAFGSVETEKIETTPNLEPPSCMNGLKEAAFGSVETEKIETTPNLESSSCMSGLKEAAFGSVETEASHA
The description is as above.

On to “yellow fluorescent protein (YFP)-labeled DCL1 (pDCL1::DCL1-YFP) (from UniProt Q9SP32 1-1909)”, for which the binding entry in assay [1] was “binds”.

B1: C-terminal fragment of CDF2 (CDF2-C, from aa 280 to 457), BiFC fusion (domain or fragment, UniProt Q93ZL5 280-457)
chain: SPLPKVPCFPGPPPTWPYAWNGVSWTILPFYPPPAYWSCPGVSPGAWNSFTWMPQPNSPSGSNPNSPTLGKHSRDENAAEPGTAFDETESLGREKSKPERCLWVPKTLRIDDPEEAAKSSIWETLGIKKDENADTFGAFRSSTKEKSSLSEGRLPGRRPELQANPAALSRSANFHESS
With B1, the binding entry in assay [2] and in assay [3] was “binds” throughout.
For GTAFDETESLGREKSKPERCLWVPKTLRIDDPEEAAKS (domain or fragment, UniProt Q93ZL5 361-398) [CDF2 C5 fragment (aa 361-398), two-hybrid fusion], in assay [4], the binding result is “no binding”.

B2: CDF2 C3 fragment (aa 360-457), two-hybrid fusion (domain or fragment, UniProt Q93ZL5 360-457)
chain: PGTAFDETESLGREKSKPERCLWVPKTLRIDDPEEAAKSSIWETLGIKKDENADTFGAFRSSTKEKSSLSEGRLPGRRPELQANPAALSRSANFHESS
Consider B2, for which, in assay [4], the binding result is “binds”.
On the same count and under the same terms, under KTLRIDDPEEAAKSSI (domain or fragment, UniProt Q93ZL5 385-400) [CDF2 C8 fragment (aa 385-400), two-hybrid fusion] stands “no binding”.

B3: CDF2 C4 fragment (aa 361-436), two-hybrid fusion (domain or fragment, UniProt Q93ZL5 361-436)
chain: GTAFDETESLGREKSKPERCLWVPKTLRIDDPEEAAKSSIWETLGIKKDENADTFGAFRSSTKEKSSLSEGRLPGR
For the molecule B3, the binding entry in assay [4] was “binds”.

B4: CDF2 C1 fragment (aa 189-457), two-hybrid fusion (domain or fragment, UniProt Q93ZL5 189-457)
chain: KNKSPASHYNRHVSITSAEAMQKVARTDLQHPNGANLLTFGSDSVLCESMASGLNLVEKSLLKTQTVLQEPNEGLKITVPLNQTNEEAGTVSPLPKVPCFPGPPPTWPYAWNGVSWTILPFYPPPAYWSCPGVSPGAWNSFTWMPQPNSPSGSNPNSPTLGKHSRDENAAEPGTAFDETESLGREKSKPERCLWVPKTLRIDDPEEAAKSSIWETLGIKKDENADTFGAFRSSTKEKSSLSEGRLPGRRPELQANPAALSRSANFHESS
B4: in assay [4], the binding entry is listed as “binds”.
AKSSIWETLGIKKDENADTFGAFRSS (domain or fragment, UniProt Q93ZL5 396-421) [CDF2 C7 fragment (aa 396-421), two-hybrid fusion]: the binding result in assay [4] is on record as “no binding”.

B5: full-length CDF2, two-hybrid fusion (protein, UniProt Q93ZL5 1-457)
chain: MADPAIKLFGKTIPLPELGVVDSSSSYTGFLTETQIPVRLSDSCTGDDDDEEMGDSGLGREEGDDVGDGGGESETDKKEEKDSECQEESLRNESNDVTTTTSGITEKTETTKAAKTNEESGGTACSQEGKLKKPDKILPCPRCNSMETKFCYYNNYNVNQPRHFCKKCQRYWTAGGTMRNVPVGAGRRKNKSPASHYNRHVSITSAEAMQKVARTDLQHPNGANLLTFGSDSVLCESMASGLNLVEKSLLKTQTVLQEPNEGLKITVPLNQTNEEAGTVSPLPKVPCFPGPPPTWPYAWNGVSWTILPFYPPPAYWSCPGVSPGAWNSFTWMPQPNSPSGSNPNSPTLGKHSRDENAAEPGTAFDETESLGREKSKPERCLWVPKTLRIDDPEEAAKSSIWETLGIKKDENADTFGAFRSSTKEKSSLSEGRLPGRRPELQANPAALSRSANFHESS
On to B5, for which the binding result in assay [5] and in assay [4] was “binds” throughout.

B6: CDF2, BiFC fusion (protein, UniProt Q93ZL5 1-457)
chain: MADPAIKLFGKTIPLPELGVVDSSSSYTGFLTETQIPVRLSDSCTGDDDDEEMGDSGLGREEGDDVGDGGGESETDKKEEKDSECQEESLRNESNDVTTTTSGITEKTETTKAAKTNEESGGTACSQEGKLKKPDKILPCPRCNSMETKFCYYNNYNVNQPRHFCKKCQRYWTAGGTMRNVPVGAGRRKNKSPASHYNRHVSITSAEAMQKVARTDLQHPNGANLLTFGSDSVLCESMASGLNLVEKSLLKTQTVLQEPNEGLKITVPLNQTNEEAGTVSPLPKVPCFPGPPPTWPYAWNGVSWTILPFYPPPAYWSCPGVSPGAWNSFTWMPQPNSPSGSNPNSPTLGKHSRDENAAEPGTAFDETESLGREKSKPERCLWVPKTLRIDDPEEAAKSSIWETLGIKKDENADTFGAFRSSTKEKSSLSEGRLPGRRPELQANPAALSRSANFHESS
As to B6, the binding entry in assay [2] and in assay [3] was “binds” each time.

B7: CDF2 C6 fragment (aa 396-457), two-hybrid fusion (domain or fragment, UniProt Q93ZL5 396-457)
chain: AKSSIWETLGIKKDENADTFGAFRSSTKEKSSLSEGRLPGRRPELQANPAALSRSANFHESS
As for B7, in assay [4], the binding result is listed as “no binding”.
